Data as given in ChEMBL document CHEMBL1201862, “PubChem BioAssay data set” (2004).
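Tested at 5 concentrations; 48 h exposure; 96-well plates; endpoints linearly interpolated, else capped at highest concentration. Abbreviation: GI50, concentration required for 50% inhibition of growth.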 Activity calls are given as the source filed them. No stated cut-off is given here; in the data, active = GI50 up to about 1.1 µM and inactive = higher.

tested on: NCI-H322M; experiment: DTP human tumour cell line panel, 48 h

SMILES	GI50
COC(=O)C1CC23CCCN4CCC5(c6ccccc6N(C=O)C15CC2)C43 (stereo not drawn)	inactive: > 100 µM
C=C(C)C(O)CCC1(C)C=Cc2c(c(C)cc3c2[nH]c2ccccc23)O1 (stereo not drawn)	inactive: 18.8 µM
Cc1c(/N=N/c2ccc(Cl)cc2)c(-c2ccccc2)n(C2OC(CO)C(O)C(O)C2O)c(=S)c1C#N (stereo not drawn)	inactive: 15.7 µM
CCC1(C(=O)OC(C)(C)C)OC12C(C)CCCC2C (stereo not drawn)	inactive: > 100 µM
CCOc1ccc(NC(=O)/C(=C/c2ccccc2)C(C)=O)cc1	inactive: 14.5 µM
COc1cc([C@@H]2c3cc4c(cc3[C@H](O)[C@H]3COC(=O)[C@H]23)OCO4)cc(OC)c1OC [PODOFILOX]	active: < 0.005 µM
O=C(N/C(=C\c1cc(Cl)ccc1Cl)c1nc2c(O)nc(S)nc2[nH]1)c1ccccc1	inactive: 39.9 µM
COc1ccc(NC(=O)CC(=O)NNC(Sc2ccccc2)c2cc(/N=N/c3ccc(Br)cc3)ccc2O)cc1 (stereo not drawn)	inactive: > 10 µM
Cc1c(C(=O)CC(=O)C(=O)Nc2ccc(Cl)cc2)[n+]([O-])c2ccccc2[n+]1[O-]	inactive: > 100 µM
O=c1oc2ccccc2cc1-c1csc(Nc2cc(Cl)cc(Cl)c2)n1	inactive: > 48 µM
O=C(NCCc1ccccc1)c1cc(/C=C/c2cc(O)ccc2O)ccc1O	inactive: 12.9 µM
C/N=c1/oc2ccccc2cc1C(N)=O	inactive: > 100 µM
O=C(NN1C(=O)C(Cl)C1c1ccc([N+](=O)[O-])cc1)c1ccccc1O (stereo not drawn)	inactive: > 100 µM
C[Si](C)(C)C1=C2C(=O)c3ccccc3C(=O)C2=C([Si](C)(C)C)[C@@H]2CCCC[C@H]12	inactive: > 100 µM
C=CCc1cc(C(Cc2ccccc2)NC(C)C)cc(OCc2ccccc2)c1OCc1ccccc1 (stereo not drawn)	inactive: 15.3 µM
Cc1ccc([S+](c2ccccc2)c2cc(C)ccc2C)cc1.O=C(OC(C(=O)[O-])C(OC(=O)c1ccccc1)C(=O)O)c1ccccc1 (stereo not drawn)	inactive: 26.8 µM
CC1(c2ccc(Cl)cc2)C2C(=O)NC(=O)C1C(=O)NC2=O (stereo not drawn)	inactive: > 100 µM
COc1ccc(/C=C2/SC(c3ccc(Cl)cc3)N(NC(=O)CCCCCCCCC(=O)NN3C(=O)/C(=C\c4ccc(OC)c(OC)c4)SC3c3ccc(Cl)cc3)C2=O)cc1OC (stereo not drawn)	inactive: 55.3 µM
COc1ccc(/C=C(/C#N)C(N)=O)cc1OC	inactive: > 100 µM
CC(C)(O)/C1=C/C=C/CCCCCCCCCC1	inactive: > 100 µM
S=c1c2cn[nH]c2nc2scc(-c3ccc(Cl)cc3)n12	inactive: > 10 µM
NC(=S)N/N=C(/C(=O)Nc1nc2ccc([N+](=O)[O-])cc2s1)C1C(=O)NC(=S)NC1=O	inactive: > 100 µM
Nc1cccc(/C=C/C(=O)N2CCN(CCOC(c3ccccc3)c3ccccc3)CC2)c1	inactive: 16.6 µM
CCCC(=O)OC1C(CO)OC(n2cc(F)c(=O)[nH]c2=O)C1F (stereo not drawn)	inactive: 31 µM

SMILES	GI50
O=c1c(Br)cc2c(-c3ccccc3)c3cc(Br)c(O)c(Br)c3oc-2c1Br	inactive: 96.8 µM
CCCC(=O)N[C@H]1CCc2cc(OC)c(OC)c(OC)c2-c2ccc(SC)c(=O)cc21	active: < 0.01 µM
Nc1nc(NCC2(CO)CC2)cc(=O)[nH]1	inactive: > 100 µM
N/N=C(/C=C1\C(=O)Nc2ccccc21)c1ccccc1	inactive: 47.9 µM
O=C(NNC(=S)Nc1ccccc1)C12CC3CC(CC(C3)C1)C2	inactive: 25.2 µM
CCOC(=O)c1c2cccccc2n2c(=O)cc(C)nc12	inactive: > 100 µM
COc1cc2ccccc2oc1=O	inactive: 65.3 µM
Nc1ccc(S(=O)(=O)Nc2cnc3c(Cl)cccc3n2)cc1 [CHLORSULFAQUINOXALINE]	inactive: 387 µM
Cc1c2n(c3ccccc13)CC1C2N(C)OC1(C)C (stereo not drawn)	inactive: > 100 µM
COC1(OC)c2no[n+]([O-])c2CCC1O (stereo not drawn)	inactive: > 100 µM
Cc1ccc([S+]([O-])c2ccccc2[N+](=O)[O-])cc1 (stereo not drawn)	inactive: 51.6 µM
O=c1[nH]c(=O)n(C2CC(O)C(CO)O2)cc1/N=N/NCc1ccccc1 (stereo not drawn)	inactive: > 100 µM
CN1CCN(c2nc(N)c(Br)c(Cl)n2)CC1	inactive: > 100 µM
O=Nc1c(-c2cccc([N+](=O)[O-])c2)nc2cnccn12	inactive: 18.7 µM
O=C(O)C[C@H]1CCCCC12CCOC2=O (stereo partly drawn)	inactive: > 100 µM
CC(=O)Nc1c(C)cc2c(nc3n2CCC3OC(C)=O)c1[N+](=O)[O-] (stereo not drawn)	inactive: > 100 µM
CCC(C(C)N1CC(=O)NC(=O)C1)N1CC(=O)NC(=O)C1 (stereo not drawn)	inactive: 82.8 µM
C/C(=N\N=C(/S)N1CCCCCC1)c1cccc[n+]1[O-]	inactive: 6.53 µM
O=C(C=P(c1ccccc1)(c1ccccc1)c1ccccc1)c1ccc(-c2cccc([N+](=O)[O-])c2)s1	inactive: 52.4 µM
COC1OC(Cn2cc([N+](=O)[O-])nc2C)C(O)C(O)C1O (stereo not drawn)	inactive: > 100 µM
CCN(CC)CCCNc1ccc2nc(C)n3c4ccc(O)cc4c(=O)c1c23	inactive: 2.4 µM
COP(=O)(O)/C=C/C(NC(=O)C(Cl)(Cl)Cl)c1ccccc1 (stereo not drawn)	inactive: > 100 µM
O=C(O)[C@H](CCC[C@H]1C(=O)O[C@H](c2ccccc2)[C@H](c2ccccc2)N1C(=O)OCc1ccccc1)N[C@@H](c1ccccc1)[C@H](O)c1ccccc1	inactive: 27.9 µM
C1COCCN1.CN(C)c1ccc(-c2c(C#N)c(N)nc(S)c2C#N)cc1	inactive: 66.5 µM
